Some of the results follow. These are noisy estimates, calculated here from bound and input reads.
Molecular target: T1, Pho4 (S. cerevisiae) (UniProt P07270)
T1 sequence: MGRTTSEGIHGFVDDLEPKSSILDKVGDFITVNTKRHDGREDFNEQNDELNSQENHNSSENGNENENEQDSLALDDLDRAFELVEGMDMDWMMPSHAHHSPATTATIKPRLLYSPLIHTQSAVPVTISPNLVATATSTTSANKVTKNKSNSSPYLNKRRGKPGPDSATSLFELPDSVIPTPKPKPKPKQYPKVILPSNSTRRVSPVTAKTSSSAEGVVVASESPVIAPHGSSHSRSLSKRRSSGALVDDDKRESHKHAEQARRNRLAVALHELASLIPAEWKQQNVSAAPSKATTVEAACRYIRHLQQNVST
Assay: relative binding free energy (BET-seq); higher = weaker binding
Details: reference: library average

| Sequence | relative binding free energy [kcal/mol] |
| --- | --- |
| ATTATCACGTGAATGG | 0.28 |
| GTTCGCACGTGGTATG | -0.02 |
| ATATTCACGTGCCGGG | 0.22 |
| GTGGGCACGTGTCGTT | -0.06 |
| AGGTACACGTGACTGG | 0.08 |
| TGACGCACGTGATGGA | 0.06 |
| TTTTTCACGTGTTGGA | 0.29 |
| CTGAGCACGTGTAGTG | 0.03 |
| GGAGTCACGTGAGCGC | 0.42 |
| GTTATCACGTGTCTTA | 0.09 |
| ATAGTCACGTGTGACT | 0.19 |
| ATTTTCACGTGTCTGG | 0.24 |
| GTGGCCACGTGGGTGG | -0.16 |
| GGTGACACGTGTCGCG | 0.12 |
| ATGGTCACGTGAGTTG | 0.36 |
| CTTGTCACGTGATTGG | 0.27 |
| TGTTTCACGTGGGAGG | 0.2 |
| TTGATCACGTGTTATG | 0.16 |
| AGGGTCACGTGGCGCG | -0.03 |
| TATGTCACGTGTCTGG | 0.12 |
| TAGGTCACGTGTTTTC | 0.32 |
| TTTTGCACGTGTCGCG | -0.2 |
| GCAGTCACGTGGTGTG | -0.01 |

| Sequence | relative binding free energy [kcal/mol] |
| --- | --- |
| TCCTGCACGTGTTTGT | -0.09 |
| AGATGCACGTGGTCGG | -0.07 |
| CGATTCACGTGTTGTA | 0.33 |
| GTGATCACGTGTGCTA | 0.14 |
| ATGGTCACGTGCAAGG | 0.16 |
| GATTGCACGTGAGTTT | 0.42 |
| TTCTTCACGTGGGCGA | 0.31 |
| GTGTACACGTGTATGG | 0.01 |
| TTTTTCACGTGGTTGC | 0.28 |
| TAGAGCACGTGGTGGG | -0.12 |
| TATATCACGTGTATCT | 0.07 |
| GTCGACACGTGAGGGG | 0.31 |
| CGAAGCACGTGGGGAG | -0.19 |
| CAAGTCACGTGAAGGG | 0.33 |
| TGTAGCACGTGTGGTG | -0.01 |
| ATTGGCACGTGCTGTG | -0.18 |
| TCGGTCACGTGTGTTC | 0.2 |
| GAGGGCACGTGATCGG | 0.13 |
| TTTTTCACGTGGTGGC | 0.38 |
| ATCGTCACGTGGTATG | -0.03 |
| CCGTTCACGTGGGTGC | 0.23 |
| AGTCTCACGTGATTGG | 0.17 |
| GGGTACACGTGGACGG | 0.08 |

| Sequence | relative binding free energy [kcal/mol] |
| --- | --- |
| TTACTCACGTGTTAGG | 0.14 |
| GTAGACACGTGGGTTA | -0.12 |
| GAGTACACGTGTGATG | 0.12 |
| ATAAGCACGTGGTTGT | -0.21 |
| GGATTCACGTGAGGGA | 0.36 |
| ATTATCACGTGTGGAG | 0.1 |
| TTCGACACGTGTGCGG | -0.01 |
| TAGGGCACGTGTTATA | -0.17 |
| ATGAGCACGTGGTGAC | -0.11 |
| TTTGTCACGTGGGGAT | 0.01 |
| TAGAGCACGTGGCGGC | -0.17 |
| GTTTCCACGTGATTGA | 0.4 |
| AAGTACACGTGCGTGG | -0.05 |
| TTTTGCACGTGTGAAG | 0.08 |
| TTTAACACGTGGGAGA | -0.18 |
| AATCGCACGTGGGCGT | -0.15 |
| TCCGCCACGTGTTGGT | 0.14 |
| TTATGCACGTGTCGTG | 0.04 |
| AGTGACACGTGTTAGG | 0.06 |
| TTTGGCACGTGGAAAA | -0.14 |
| TTGATCACGTGGGATG | 0.03 |
| GAGGGCACGTGTAGCG | 0.02 |
| TTGTTCACGTGATGCA | 0.25 |

| Sequence | relative binding free energy [kcal/mol] |
| --- | --- |
| GTGTACACGTGAGGGT | 0.34 |
| TATAGCACGTGCAGGG | -0.12 |
| TGTTTCACGTGATGGG | 0.44 |
| CTTGTCACGTGTTAGT | 0.05 |
| TAGTACACGTGTCGGG | 0.22 |
| GTAGGCACGTGGCCGG | -0.13 |
| GTATTCACGTGAGGGC | 0.42 |
| AAGGGCACGTGTGGAG | -0.11 |
| AATTTCACGTGTACTT | 0.2 |
| GGAATCACGTGTTAAG | 0.19 |
| CTGGCCACGTGCGTGG | -0.18 |
| GTCTGCACGTGGGATT | 0.05 |
| TACGTCACGTGAATGT | 0.27 |
| TTAATCACGTGGGTAT | -0.03 |
| TGGAACACGTGCATGT | 0.2 |
| TTGGGCACGTGGAAAG | 0.08 |
| AGCGGCACGTGGGCTT | -0.29 |
| GTCTTCACGTGATTGA | 0.4 |
| GTCGGCACGTGGTCGG | -0.08 |
| CTGGGCACGTGTTGTC | 0 |
| ATATGCACGTGATGAT | 0.12 |
| TAGTTCACGTGAATCG | 0.31 |
| AAGTGCACGTGTGAGG | 0.14 |

| Sequence | relative binding free energy [kcal/mol] |
| --- | --- |
| TGTACCACGTGTCGTG | 0.04 |
| CGTAACACGTGGATTG | 0.07 |
| CGTGGCACGTGGGGTA | -0.17 |
| ATAATCACGTGTCGTG | 0.19 |
| TAAGACACGTGAGTGG | 0.28 |
| AAGTACACGTGAATGT | 0.22 |
| TCCTTCACGTGAGTGG | 0.41 |
| TGGTACACGTGCGGGT | 0.02 |
| AAGCTCACGTGCGGGG | 0.22 |
| CAAGGCACGTGTGCGG | -0.14 |
| TGGGACACGTGGGTCA | -0.01 |
| GGATTCACGTGTGCTG | 0.28 |
| TCGTTCACGTGAGTAT | 0.41 |
| ATCTGCACGTGTAGGG | 0.02 |
| GTTAACACGTGGTAGT | 0.04 |
| AGTTGCACGTGTATTA | -0.05 |
| TTGACCACGTGAGTTT | 0.3 |
| CTTGTCACGTGCGGAG | 0.03 |
| ATTGGCACGTGCGTGC | -0.29 |
| GAATTCACGTGGGTAT | 0.26 |
| TTCGGCACGTGAGGCT | 0.13 |
| TGTAACACGTGGACTG | 0.01 |
| GATGGCACGTGTATAG | -0.01 |

— the BET-seq Pho4 binding data (Le et al. 2018)
